Measured values reported in the supplement of paper PMC12217912.
This is one part of the list. Sequences were assembled here from the parent chain. Values near 0.05 are background.

B1: TEV protease; numbered along this chain (parent)
chain: MGESLFKGPRDYNPISSSICHLTNESDGHTTSLYGIGFGPFIITNKHLFRRNNGTLVVQSLHGVFKVKDTTTLQQHLVDGRDMIIIRMPKDFPPFPQKLKFREPQREERICLVTTNFQTKSMSSMVSDTSCTFPSGDGIFWKHWIQTKDGQCGSPLVSTRDGFIVGIHSASNFTNTNNYFTSVPKNFMELLTNQEAQQWVSGWRLNADSVLWGGHKVFMVKPEEPFQPVKEATQL

Variants of: B1
Assay: raw area under fraction-flipped curve 0-4 h after induction (AUC4h, not background-subtracted), DNA-recorder readout of cleavage of the substrate (dimensionless); higher = more cleavage of the substrate by the protease variant
Settings: temperature: 34 °C; time window: 0-4 h after rhamnose induction
Procedure: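 In vivo DNA recorder in E. coli TOP10(DE3) ΔrhaA at 34 °C. Each TEVp single-site mutant (parent TEVp 0) is paired with a single-site variant of the 7-mer TEVs (canonical ENLYFQ|S). The substrate sits between flexible linkers in a Bxb1-sfGFP-TEVs-SsrA fusion, so cleavage stabilises Bxb1 and speeds flipping of a recombination array, read by NGS. The value is the raw area under the fraction-flipped curve over 0-4 h after rhamnose induction (AUC4h), with ≥20 reads per time point. It is not background-subtracted; inactive controls average about 0.047.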
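Further: Bxb1 expression induced with 0.2% (w/v) L-rhamnose at OD600 near 0.5, cultures sampled hourly, flipped fraction per protease–substrate barcode pair counted by paired-end Illumina sequencing.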

Row | Variant | area with substrate ENAYFQS | area with substrate ENEYFQS | area with substrate ENGYFQS | area with substrate ENKYFQS | area with substrate ENQYFQS | area with substrate ENRYFQS | area with substrate ENTYFQS | area with substrate ENVYFQS | area with substrate ENWYFQS | area with substrate ENDYFQS | area with substrate ENFYFQS | area with substrate ENMYFQS | area with substrate ENNYFQS | area with substrate ENSYFQS | area with substrate ENHYFQS | area with substrate ENIYFQS | area with substrate ENYYFQS | area with substrate ENCYFQS | area with substrate ENPYFQS
1 | C131R | 0.0685 | 0.0904 | 0.0648 | 0.0795 | 0.0593 | 0.0868 | 0.0682 | 0.0913 | 0.0554 | – | – | – | – | – | – | – | – | – | –
2 | G138D | 0.0522 | 0.069 | – | – | – | 0.067 | – | – | – | 0.075 | 0.0592 | 0.0426 | 0.039 | 0.0688 | – | – | – | – | –
3 | K142C | 0.0648 | 0.0611 | 0.0633 | – | 0.0608 | – | 0.0839 | 0.0683 | 0.0462 | 0.0662 | – | 0.0703 | 0.0766 | 0.0554 | 0.0512 | 0.0927 | 0.0713 | – | –
4 | K142V | 0.0538 | 0.0576 | 0.0631 | 0.0569 | 0.0858 | 0.0604 | 0.0559 | – | 0.025 | 0.0681 | – | 0.113 | 0.058 | 0.0285 | 0.0586 | 0.0881 | – | 0.0684 | –
5 | V157I | 0.0555 | 0.0635 | 0.0643 | 0.0479 | 0.0368 | 0.0637 | 0.064 | – | 0.0068 | 0.0594 | 0.0813 | – | 0.0597 | – | – | 0.0631 | – | – | –
6 | V157M | 0.0578 | 0.0643 | 0.0766 | 0.0665 | 0.0626 | 0.0506 | 0.0654 | – | – | 0.0672 | 0.0594 | 0.0767 | 0.068 | 0.129 | – | 0.12 | – | 0.062 | 0.0594
7 | V157Y | 0.0391 | 0.0643 | – | 0.0554 | 0.0553 | – | 0.0542 | – | 0.0413 | 0.057 | 0.0565 | – | – | – | – | 0.0698 | – | – | 0.0484
8 | S135Q | 0.0603 | 0.0556 | 0.0623 | – | 0.0404 | – | – | – | – | 0.054 | 0.0576 | 0.0562 | 0.0624 | 0.0663 | 0.0634 | 0.0637 | 0.0438 | 0.0569 | 0.0616
9 | W141V | 0.0535 | – | 0.0562 | 0.0736 | 0.0703 | 0.0583 | 0.0506 | – | 0.0539 | 0.07 | – | 0.0502 | 0.0477 | 0.0632 | 0.0521 | 0.07 | – | 0.0482 | 0.0412
10 | W141T | 0.053 | 0.0534 | 0.0638 | – | 0.0549 | 0.048 | – | – | – | – | – | – | 0.0598 | – | 0.0449 | 0.0568 | – | – | –
11 | W141Y | 0.0507 | – | – | – | – | 0.0531 | – | 0.0726 | – | 0.0757 | 0.071 | 0.0517 | 0.0672 | 0.0715 | – | – | – | – | –
12 | Q146L | 0.084 | – | – | – | – | – | 0.0537 | – | – | 0.0644 | – | – | – | 0.0691 | – | – | – | – | –
13 | T132W | 0.0607 | 0.0605 | 0.0378 | – | – | 0.0477 | 0.0503 | 0.0493 | 0.0542 | 0.0565 | 0.059 | – | 0.0617 | 0.0516 | 0.0794 | – | 0.0561 | – | –
14 | T132P | 0.0487 | 0.0571 | 0.048 | – | 0.0665 | 0.0572 | – | 0.0508 | 0.0392 | – | 0.044 | – | 0.0598 | – | – | 0.0702 | – | 0.0773 | –
15 | T132L | 0.0702 | 0.0629 | 0.0522 | – | 0.0658 | 0.0686 | 0.0788 | – | – | 0.0612 | – | 0.0837 | 0.0468 | 0.0684 | 0.058 | – | 0.0528 | 0.0622 | 0.0399
16 | S154Q | 0.0672 | – | 0.0635 | 0.0789 | 0.061 | 0.0655 | 0.0516 | – | – | – | – | 0.0956 | – | – | – | 0.104 | – | 0.0617 | –
17 | F140D | 0.0587 | 0.0625 | – | – | – | – | 0.0645 | 0.0586 | 0.0458 | 0.0679 | – | 0.0573 | 0.0563 | 0.0668 | 0.0626 | – | – | 0.0634 | –
18 | F140H | 0.0667 | – | 0.0567 | – | – | – | – | – | – | – | – | 0.0696 | 0.0604 | 0.0185 | – | – | – | – | –
19 | G153E | 0.0596 | – | – | 0.0532 | 0.046 | – | 0.0528 | 0.056 | – | – | – | – | – | 0.0608 | – | – | – | 0.0562 | 0.0503
20 | H143M | 0.0578 | 0.0506 | – | – | 0.0624 | 0.066 | 0.0665 | 0.0537 | – | 0.075 | 0.071 | 0.0578 | 0.0571 | 0.0659 | 0.0608 | 0.0685 | 0.0611 | 0.0464 | 0.0503
21 | T147L | 0.0566 | 0.0583 | 0.0618 | 0.0613 | 0.0538 | 0.0583 | 0.0582 | 0.0577 | 0.0517 | 0.0515 | – | – | 0.0492 | 0.0568 | 0.0442 | 0.0743 | 0.0501 | 0.0629 | 0.0602
22 | T147C | 0.0426 | 0.0628 | – | – | 0.0557 | 0.0449 | – | 0.08 | – | 0.0677 | 0.0633 | – | – | – | 0.0876 | 0.0668 | – | 0.0748 | –
23 | D161E | 0.0169 | 0.0649 | 0.069 | – | 0.0523 | 0.0412 | 0.0457 | 0.061 | – | 0.059 | 0.058 | 0.0708 | – | 0.0681 | 0.0558 | 0.0821 | – | 0.0653 | 0.0646
24 | T129Y | 0.0774 | – | 0.0526 | 0.0785 | 0.0587 | 0.0558 | 0.0583 | 0.0867 | – | – | – | 0.0721 | – | 0.0645 | – | 0.14 | – | 0.0647 | 0.0582
25 | T129M | 0.0602 | – | – | 0.056 | 0.0473 | 0.0634 | – | – | 0.0597 | 0.0604 | 0.0571 | – | – | – | 0.0564 | – | 0.0738 | – | 0.0498
26 | T129S | 0.06 | 0.0558 | 0.0527 | 0.0867 | 0.0487 | – | 0.0617 | – | – | 0.0579 | 0.0616 | 0.0801 | 0.0696 | 0.0605 | – | – | 0.0877 | 0.0632 | 0.0646
27 | S158W | 0.0494 | 0.0487 | 0.0567 | – | 0.0448 | 0.0433 | 0.0486 | 0.0555 | – | 0.0613 | 0.0585 | – | 0.0324 | 0.0495 | 0.0412 | 0.056 | 0.0587 | 0.0542 | –
28 | S158M | 0.0473 | 0.0285 | 0.0352 | 0.0556 | 0.0445 | – | 0.0328 | 0.0525 | – | – | 0.0552 | – | 0.0676 | 0.0708 | 0.06 | – | 0.0479 | – | –
29 | D137E | 0.0355 | 0.0691 | – | – | 0.0558 | – | 0.0715 | 0.0639 | 0.0645 | 0.0421 | 0.0494 | – | 0.0595 | 0.0667 | – | – | 0.066 | 0.0806 | 0.0571
30 | T159R | 0.0512 | 0.068 | – | – | 0.0468 | 0.0603 | – | – | 0.0304 | – | – | – | – | 0.0588 | 0.062 | – | 0.05 | 0.0828 | –
